Assay results: the supplement of paper PMC4604168 (melanoma cell lines)
The list shows a part of the results. Single values are uncertain, as repeats are few or missing.

Tested on: LB2518-MEL
Test: cell count relative to DMSO control; melanoma cells; higher = more viable cells
Conditions: library dose: standard library concentration; 72 h
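Further: cells treated in 1,536-well plates, then fixed and DAPI-stained, with nuclei counted from automated high-throughput microscope images.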

SMILES	cell count [%]
NC(=O)c1ccc(N(C(N)=O)c2c(F)cccc2F)nc1-c1ccc(F)cc1F + Cc1cc([N+](=O)[O-])ccc1NS(=O)(=O)c1cc(Cl)ccc1Cl [FH535] (first compound 2 µM, partner dose 5 µM)	99
Cc1ccc(NC(=O)c2cccc(N(C)C)c2)cc1NC(=O)c1ccc(O)cc1 + N#Cc1c(O)c2c(-c3ccc(-c4ccccc4O)cc3)csc2[nH]c1=O [A769662] (first compound 10 µM, partner dose 10 µM)	112
NC(=O)c1ccc(N(C(N)=O)c2c(F)cccc2F)nc1-c1ccc(F)cc1F + COc1cc(N2CCC(N3CCN(C)CC3)CC2)ccc1Nc1ncc(Cl)c(Nc2ccccc2S(=O)(=O)C(C)C)n1 [NVP-TAE684] (first compound 2 µM, partner dose 0.4 µM)	78.9
CCc1ccc(CCOc2ccc(CC3SC(=O)NC3=O)cc2)nc1 (stereo unspecified) [pioglitazone] + COc1ccc2c(c1)CCC1C2CCC2(C)C(NCCCCCCN3C(=O)C=CC3=O)CCC12 [U73122] (first compound 10 µM, partner dose 2 µM)	85.8
NC(=O)c1ccc(N(C(N)=O)c2c(F)cccc2F)nc1-c1ccc(F)cc1F + COc1ccc2c(c1)CCC1C2CCC2(C)C(NCCCCCCN3C(=O)C=CC3=O)CCC12 [U73122] (first compound 2 µM, partner dose 2 µM)	101
NC(=O)c1ccc(N(C(N)=O)c2c(F)cccc2F)nc1-c1ccc(F)cc1F + O=S(=O)(c1ccccc1)N(CC(F)(F)F)c1ccc(C(O)(C(F)(F)F)C(F)(F)F)cc1 [T0901317] (first compound 2 µM, partner dose 7 µM)	99.4
CCCCCCCCc1ccc(CCC(N)(CO)CO)cc1 [fingolimod] + Cc1cc([N+](=O)[O-])ccc1NS(=O)(=O)c1cc(Cl)ccc1Cl [FH535] (first compound 10 µM, partner dose 5 µM)	22.8
CCCCCCCCc1ccc(CCC(N)(CO)CO)cc1 [fingolimod] + COc1ccc2c(c1)CCC1C2CCC2(C)C(NCCCCCCN3C(=O)C=CC3=O)CCC12 [U73122] (first compound 10 µM, partner dose 2 µM)	49.8
NC(=O)c1ccc(N(C(N)=O)c2c(F)cccc2F)nc1-c1ccc(F)cc1F + COC(=O)c1sccc1S(=O)(=O)Nc1ccc(Nc2ccccc2)cc1OC [GSK0660] (first compound 2 µM, partner dose 5 µM)	121
CCCCCCCCc1ccc(CCC(N)(CO)CO)cc1 [fingolimod] + Cc1cc(Nc2cc(N3CCN(C)CC3)nc(/C=C/c3ccccc3)n2)n[nH]1 [ENMD2076] (first compound 10 µM, partner dose 0.2 µM)	0.542
NC(=O)c1ccc(N(C(N)=O)c2c(F)cccc2F)nc1-c1ccc(F)cc1F + COc1ccc(-c2ccc3c(N4CCOCC4)nc(N4C[C@@H](C)O[C@@H](C)C4)nc3n2)cc1CO [KU0063794] (first compound 2 µM, partner dose 0.1 µM)	95.5
CCCCCCCCc1ccc(CCC(N)(CO)CO)cc1 [fingolimod] + O=S(=O)(c1ccccc1)N(CC(F)(F)F)c1ccc(C(O)(C(F)(F)F)C(F)(F)F)cc1 [T0901317] (first compound 10 µM, partner dose 7 µM)	0.186
CCCCCCCCc1ccc(CCC(N)(CO)CO)cc1 [fingolimod] + c1cc(-c2cnn3cc(-c4ccc(OCCN5CCCCC5)cc4)cnc23)ccn1 [Dorsomorphin] (first compound 10 µM, partner dose 2 µM)	0.686
CC(C)(C)c1cnc(CSc2cnc(NC(=O)C3CCNCC3)s2)o1 + NCC(=O)Nc1ccc(-n2nc(C(F)(F)F)cc2-c2ccc3c(ccc4ccccc43)c2)cc1 [OSU03012] (first compound 0.05 µM, partner dose 5 µM)	72.6
NC(=O)c1ccc(N(C(N)=O)c2c(F)cccc2F)nc1-c1ccc(F)cc1F + O=C(Nc1ccccc1)c1cc([N+](=O)[O-])ccc1Cl [GW9662] (first compound 2 µM, partner dose 10 µM)	81.6
CCCCCCCCc1ccc(CCC(N)(CO)CO)cc1 [fingolimod] + N#Cc1c(O)c2c(-c3ccc(-c4ccccc4O)cc3)csc2[nH]c1=O [A769662] (first compound 10 µM, partner dose 10 µM)	0.209
